# The campaign covered roughly 73,000 compounds. About 1,800 (2.5%) were called active. Inconclusive results, whose numbers are uncertain, are shown with a selection of clear calls. Calls follow the shape of the dose curve; as a rule, active = well fitted activation curve with a large enough effect; inconclusive = small, poorly fitted or top-dose-only effect; inactive = no such curve, though single readings can be large or run the other way. No potency is given beside an inconclusive call; the fits are too rough.
# Test: qHTS Assay for Agonists of the Thyroid Stimulating Hormone Receptor: Activators of Intracellular cAMP Concentrations in Parental HEK 293; also: nearly all actives have a fitted effect of over 55% in size; as to activation: % of control where 0% means no effect
# Conditions: parental HEK293 CNG cAMP sensor, membrane potential fluorescence; activation: at 57.1 µM (top of the series) unless noted
# Outline: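 Parental HEK 293 cells stably expressing a modified CNG channel (no TSHR) report cAMP rise as membrane depolarization. Membrane potential dye with 100 uM RO 20-1724 was loaded for 60 min at room temperature, then compound added for 30 min; fluorescence read at 590 nm.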
# Potency is read from the fitted curve at half-maximal effect; tags tell the direction and shape of the fitted curve.
Compound,Potency,activation
COc1ccc(C2C(C(C)=O)=C(C)N=c3s/c(=C/c4ccc5c(c4)OCO5)c(=O)n32)cc1 (centres undefined),inactive,–
CSc1ccccc1-n1nnnc1SCc1ccccc1,"inconclusive [activator, full curve]",–
CC(C)N1C(=O)C2ON(c3ccccc3)C(c3cccs3)C2C1=O (centres undefined),"inconclusive [activator, partial curve, poor fit]",–
Cc1ccc(C2Nc3ccccc3-c3nc4ccccc4n32)o1 (centres undefined),active: 20 µM,–
O=C(c1ccccc1OCc1ccccc1Br)N1CCN(c2ncccn2)CC1,active: 15.8 µM,–
COc1ccc(C(=O)NC(=O)Nc2cc(C)ccn2)cc1,inactive,–
COc1ccccc1N1CC(C(=O)OCC(=O)c2ccc(F)cc2)CC1=O (centres undefined),"inconclusive [activator, single point]",–
COc1ccc(-n2nnc3c(=O)n(Cc4cc(C)ccc4C)cnc32)cc1,"inconclusive [activator, single point]",–
COc1cccc(C(=O)CSc2nnc(-c3cccs3)o2)c1,"inconclusive [activator, single point]",–
O=C(NCc1ccco1)C(c1ccncc1)N(CCC1=CCCCC1)C(=O)Cn1nnc2ccccc21 (centres undefined),"inconclusive [activator, single point]",–
O=C(O)C1CC(=O)N(c2ccc(F)c(F)c2)C1 (centres undefined),"inconclusive [activator, single point]",–
CCN(CC)C(=O)CCC(=O)Nc1ccc(C(=O)OC)cc1,inactive,–
COc1ccc(N2CC(O)=C(c3nc4ccccc4s3)C2=N)c(OC)c1,inactive,–
N#Cc1cc2ccccc2nc1SCc1ccccn1,"inconclusive [activator, partial curve]",–
O=C(Nc1ccc(Cl)c(Cl)c1)N1CCSC1c1ccco1 (centres undefined),"inconclusive [activator, single point]",–
O=C(O)CSc1nnc(-c2ccccc2O)n1Cc1ccccc1,inactive,–
N#C/C(=C\C1CC=CCC1)c1nc2ccccc2[nH]1 (centres undefined),"inconclusive [activator, partial curve]",–
O=C(c1cc2nc(-c3ccco3)cc(C(F)(F)F)n2n1)N1CCN(c2ccccc2)CC1,inactive,–
O=C(Oc1cccc(N2C(=O)CCC2=O)c1)C1CC(=O)N(c2ccc(Br)cc2)C1 (centres undefined),inactive,–
CCCCCCn1c(NCC)nc2c1c(=O)n(C)c(=O)n2C,"inconclusive [activator, partial curve]",–
Cc1cc(NC(=O)CSc2nc(-c3ccco3)cc(C(F)(F)F)n2)n(-c2ccccc2)n1,"inconclusive [activator, single point]",–
COc1ccccc1-n1c(SCC(=O)Nc2ccccc2F)nc2[nH]ncc2c1=O,"inconclusive [activator, full curve, poor fit]",–
Cc1ccc2cc(C#N)c(N3CCCN(S(=O)(=O)c4ccccc4)CC3)nc2c1,"inconclusive [activator, single point]",–
OC(CN1C2=NCCCN2c2ccccc21)c1ccc2c(c1)OCO2 (centres undefined),"inconclusive [activator, single point]",–
COc1cc(NC(=O)CCn2c(=O)[nH]c3ccsc3c2=O)cc(OC)c1,"inconclusive [activator, single point]",–

Compound,Potency,activation
CC(=O)N1CCN(c2ccc(NCc3ccc(C(C)C)cc3)cc2)CC1,active: 3.98 µM,–
Cn1c(Nn2cnnc2)nc2ccccc21,active: 3.16 µM,–
O=C(NC1CCCCCC1)C1c2ccccc2C(=O)N1Cc1ccco1 (centres undefined),active: 12.6 µM,–
O=C(CCN1C(=O)COc2ccccc21)NCc1cccnc1,inactive,–
CC(C)(C)NC(=O)COC(=O)c1ccc(O)cc1,"inconclusive [activator, single point]",–
O=C(CSc1nnc(-c2ccccc2Br)o1)N1CCc2ccccc2C1,"inconclusive [activator, partial curve]",–
CCC(NC(=O)c1ccccc1O)c1ccccc1 (centres undefined),"inconclusive [activator, single point]",–
N.N.O=C(O)C1(C(=O)O)CCC1.[Pt],"inconclusive [activator, single point]",–
Cc1cc2c(s1)CCCCC(=O)N2,"inconclusive [activator, partial curve]",–
Cc1nc2cncnc2n(-c2ccccc2)c1=O,inactive,–
CCOc1ccc(OCC)c(NC(=O)C2COc3ccccc3O2)c1 (centres undefined),active: 31.6 µM,–
COc1ccc(CCNc2nc(N3CCCCC3)nc(N3CCCCC3)n2)cc1OC,"inconclusive [activator, partial curve]",–
CCN(CC)c1ccc(NC(=O)c2nc3nc(C)cc(C(F)F)n3n2)cc1,inactive,–
Nn1c(SCC(=O)NC2CCCc3ccccc32)nnc1-c1cccs1 (centres undefined),active: 0.199 µM,–
COc1ccc(N2CCN(c3oc(COc4ccccc4Cl)nc3C#N)CC2)cc1,"inconclusive [activator, partial curve]",–
CCOc1ccc2nc(NCCNC(=O)C3CC3)c(C)cc2c1,"inconclusive [activator, partial curve]",–
O=C(NC1CCCC1)c1sc(=S)n2c1[nH]c(=O)c1ccccc12,"inconclusive [activator, partial curve]",–
COc1ccccc1OC[C@H](O)CN1CCN(CC(=O)Nc2c(C)cccc2C)CC1,"inconclusive [activator, single point]",–
CCOC(=O)Cc1nnc2c(Nc3ccc(Cl)cc3)nc3nonc3n12,"inconclusive [activator, partial curve, poor fit]",–
Cc1cccc(C(=O)NCN2CCN(c3ccccc3C#N)CC2)c1,–,inconclusive: 36% [activator]
CCC(NC(=O)OC(C)(C)C)C(=O)Oc1ccc2c3c(c(=O)oc2c1)CCC3 (centres undefined),"inconclusive [activator, single point]",–
CC1(C)Oc2cc3c(cc2O1)OC(C)(C)O3,active: 3.16 µM,–
CCc1nc(SCC(=O)N2CCc3ccccc32)c2oc3ccccc3c2n1,inactive,–
COc1cccc(Cn2c(=O)cnc3cnc(N(C)C)nc32)c1,"inconclusive [activator, full curve]",–
CCOC(=O)c1c(-c2cccs2)csc1NC(=O)CN1CC(C)OC(C)C1 (centres undefined),inactive,–

Compound,Potency,activation
CS(=O)(=O)Nc1cccc(-c2cncnc2-n2ccnc2)c1,inactive,–
C#CCC(C(=O)OC)(C(=O)OC)C(C[N+](=O)[O-])c1ccccc1 (centres undefined),–,inactive: -0.955% [at 11.4 µM]
Cc1cc(C)n2cc(CSc3nnc(-c4ccccc4)o3)nc2n1,inactive,–
Nc1ccc(-c2cc(N)n(-c3ccccc3)n2)cc1,"inconclusive [activator, single point]",–
CO[C@H]1COC(=O)[C@H](C)COC(=O)[C@@H](Cc2ccccc2)NC(=O)C/C=C\[C@H]1C,–,inactive: 12.5% [at 11.4 µM]
CCC[C@@H]1C[C@@]1(CCC)C(NP(=O)(c1ccccc1)c1ccccc1)c1ccc(Cl)cc1 (some centres undefined),active: 12.6 µM,–
Cc1cccc2cc(C#N)c(SCC(=O)N3CC(=O)Nc4ccccc43)nc12,"inconclusive [activator, partial curve, poor fit]",–
C=CCn1c(-c2cccc(Cl)c2)n[nH]c1=S,"inconclusive [activator, single point]",–
CCCn1c(SCC(=O)Nc2nnc(-c3ccccc3)s2)nnc1-c1ccccn1,"inconclusive [activator, single point]",–
COCCNC(=O)c1ccc(NS(=O)(=O)c2cc(C)ccc2C)cc1,inactive,–
N#Cc1ccc(N2CCN(C(=O)c3cccc(F)c3)CC2)c(F)c1,inactive,–
CC1CCCCN1C(=O)CSCC(=O)Nc1nc(-c2cccs2)cs1 (centres undefined),"inconclusive [activator, partial curve]",–
COC(=O)[C@@]1(Cc2ccc(F)cc2)[C@H]2c3cc(C(=O)N4CCCC4)n(Cc4ccccc4)c3C[C@H]2CN1C(=O)c1ccccc1,"inconclusive [activator, full curve]",–
COC(=O)N1[C@H](Cc2ccccc2)C=C[C@]1(C)C(=O)NCc1ccc(N(C)C)cc1,"inconclusive [activator, partial curve]",–
O=S(=O)(Nc1ccc2nc(-c3ccc(Br)o3)[nH]c2c1)c1ccccc1,"inconclusive [activator, full curve, poor fit]",–
C[C@@]1(O)CCOC(=O)C1,inactive,–
CCCCNC(=O)c1ccc(N2CCOCC2)c(NS(=O)(=O)c2ccc(OC)cc2)c1,"inconclusive [activator, single point]",–
COc1cccc(Nc2ncc3nc(-c4cn(C)c5ccccc45)c(=O)n(CCC#N)c3n2)c1,inactive,–
O=C(NCCc1ccc2c(c1)OCCO2)c1cc2ccccc2o1,active: 25.1 µM,–
CCOc1ccc2[nH]c(C)cc(=O)c2c1,"inconclusive [activator, single point]",–
COc1ccc(-c2noc(COc3ccc4c(c3)OCO4)n2)cc1OC,"inconclusive [activator, single point]",–
O=C(CSc1nc2ccccc2c(=O)n1Cc1ccco1)c1ccccc1,"inconclusive [activator, partial curve]",–
Brc1ccc2ncnc(NCc3ccco3)c2c1,"inconclusive [activator, single point]",–
CCOC(=O)c1c(NC(=O)c2cccs2)sc(C(=O)N2CCOCC2)c1C,"inconclusive [activator, partial curve]",–

# Reference: PubChem BioAssay AID938 (National Center for Advancing Translational Sciences (NCATS), 2007)
